# Experimental data: PubChem BioAssay AID1347073 (National Center for Advancing Translational Sciences (NCATS), 2019)
# The campaign covered roughly 45,000 compounds. About 200 (0.44%) were called active. About 7% were inconclusive and are not listed. Calls come from the whole dose curve; as a rule, active = well fitted activation curve with a large enough effect; inconclusive = small, poorly fitted or top-dose-only effect; inactive = no such curve, though single readings can be large or run the other way. Some of the results follow.
# Test: qHTS of TDP-43 Inhibitors: NCGC Sytravon Library Screen; note: 0% is about no effect; nearly all actives have a fitted effect of over 55% in size
# Conditions: yeast TDP-43 toxicity rescue, BacTiter-Glo growth, 24 h; series mostly up to 46.1 µM; growth rescue (activation): at the top concentration
# Outline: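 TDP-43-expressing yeast, pregrown in raffinose, seeded at OD600 0.02 in galactose medium with compound for 24 hr at 30 deg C. Growth read by BacTiter-Glo luminescence, so rescue of toxicity appears as activation.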
row,Structure (SMILES),growth rescue (activation)
1,Cc1[nH]c2ccccc2c1C(=O)CSc1ccccn1,inactive: 1.27%
2,O=S(=O)(c1ccccc1)c1nc(-c2ccco2)oc1N1CCCCC1,inactive: 11.1%
3,CC(C)C(N)c1csc(NC(=O)Nc2ccc(OC(F)(F)F)cc2)n1 (stereo unspecified),inactive: 22.3%
4,COC(=O)C1=C(C)NC(C)=C(C(=O)OC)C1c1ccc(C)o1,inactive: 5.3%
5,Cc1cccc(NC(=O)CCn2c(=O)oc3ccccc32)c1,inactive: 22.3%
6,N#Cc1c2c(c(Nc3ccccc3)n3c1nc1ccccc13)CCC2,inactive: 27%
7,COc1ccc(/C=C/C(=O)NC2CCCCCCC2)cc1S(=O)(=O)N1CCOCC1,inactive: 6.72%
8,CC1CCN(S(=O)(=O)c2ccc3c(c2)CCN3C(=O)Nc2ccc(Br)cc2)CC1,inactive: -0.404%
9,COc1cccc(NC(=O)C2C3C=CC(C3)C2C(=O)O)c1 (stereo unspecified),inactive: 9.48%
10,Cc1ccc(C)c(NC(=O)CN(C)C(=O)c2ccc(Cl)nc2)c1,inactive: -8.65%
11,O=c1ccc(-c2n[nH]c(=S)n2-c2ccc(F)c(Cl)c2)n[nH]1,inactive: 3%
12,CCCCNC(=O)N1c2ccccc2CC1C (stereo unspecified),inactive: 15%
13,COCCC(=O)N1CCCC(C(=O)c2ccccc2SC)C1 (stereo unspecified),inactive: -0.176%
14,CC1CC(C)CN(S(=O)(=O)N2CCC(C(=O)NCCC3=CCCCC3)CC2)C1 (stereo unspecified),inactive: 9.93%
15,Cc1nn(-c2ccccc2)c2sc(C(=O)n3cccn3)cc12,inactive: 17.2%
16,CCCCNC(=O)C1(C)CCCCN1C(=O)c1cncc(Br)c1 (stereo unspecified),inactive: 6.23%
17,COc1ccc2[nH]cc(CCNC(=O)c3ccccc3Cl)c2c1,inactive: 16.6%
18,Cc1ccc(C2(C)NC(=O)N(CC(=O)N3CC(=O)Nc4ccccc43)C2=O)cc1 (stereo unspecified),inactive: -6.15%
19,c1ccc(COc2cccc(CNCc3cccs3)c2)cc1,inactive: 5.38%
20,Cc1ccc(C(=O)CCC(=O)OCC(=O)N2c3ccccc3NC(=O)C2(C)C)cc1,inactive: 4.08%
21,CC(C(=O)Nc1ccccc1-c1ccccc1)N1CCN(C(=O)c2ccccc2)CC1 (stereo unspecified),inactive: -10.1%
22,O=[N+]([O-])c1ccc(O)c(/C=N/Nc2ccc(Cl)nn2)c1,inactive: 2.43%

row,Structure (SMILES),growth rescue (activation)
1,O=C(COC(=O)c1n[nH]c2ccccc12)NC(=O)NC1CCCC1,inactive: 5.49%
2,Cc1c(/C=N/NC(=O)c2cc(Br)ccc2O)c(=O)n(C)c(=O)n1C,inactive: -1.95%
3,CC1=C(C(=O)N2CCN(c3cccc(C)c3C)CC2)C2(CCCCC2)OC1=O,inactive: 22.5%
4,CCOC(=O)c1[nH]c(C)c(/C(O)=C2\C(=O)C(=O)N(CCN(C)C)C2c2ccncc2)c1C (stereo unspecified),inactive: -13.5%
5,CCOc1cc2c(cc1OCC)C(c1ccc(C(=O)O)cc1)NCC2 (stereo unspecified),inactive: 4.48%
6,COc1cccc(CN2CCNC(=O)C2CC(=O)NCc2cc(C(C)C)no2)c1 (stereo unspecified),inactive: 15.7%
7,O=C(NC(Cc1ccccc1)C(=O)OCC(=O)N1CCc2ccccc21)c1ccco1 (stereo unspecified),inactive: 21%
8,Cc1cc(C(=O)OCC(=O)Nc2ccc(F)cc2[N+](=O)[O-])c2ccccc2n1,inactive: 9.63%
9,O=C(NCc1ccccc1Cl)C1CCN(S(=O)(=O)c2ccc(F)cc2)CC1,inactive: 7.26%
10,O=c1c(C=NCc2cccnc2)c(C(F)(F)F)[nH]n1-c1nc2ccccc2s1,inactive: -12.6%
11,Cc1cccc(CN2CCC(CNC(=O)CSc3cc(=O)n(C)c4cc(Cl)ccc34)CC2)c1,inactive: 4.96%
12,CCOc1ccc(N(CC(=O)NC2CCCC2)S(=O)(=O)c2ccccc2)cc1,inactive: 22.9%
13,COc1ccc(C)cc1Nc1nc(C)nc2sc(C)cc12,inactive: 14.4%
14,COc1ccc(-n2cccc2C=O)cc1,inactive: 15.2%
15,CC1CCCN(S(=O)(=O)c2ccc(S(=O)(=O)N3CCCC3)cc2)C1 (stereo unspecified),inactive: 11.2%
16,Cc1ccc(C2Nc3ccccc3NC3=C2C(=O)CC(C)(C)C3)c(O)c1 (stereo unspecified),inactive: 1.72%
17,CC(=O)c1ccc(NC(=O)C(C)OC(=O)c2ccc(NS(=O)(=O)c3ccc(F)c(F)c3)cc2)cc1 (stereo unspecified),inactive: 14.4%
18,O=C(O)COc1ccccc1/C=N/NC(=O)CN1CCN(S(=O)(=O)c2ccc(Br)cc2)CC1,inactive: 22.4%
19,CC(C)(C)C(=O)Nc1nnc(CC(=O)NCc2ccccc2)s1,inactive: -5.45%
20,CCNc1ccccc1CP(=O)(c1ccccc1)c1ccccc1O (stereo unspecified),inactive: -22.9%
21,CS(=O)(=O)N(CC(=O)N/N=C/c1ccccc1C(=O)O)c1cccc(Cl)c1Cl,inactive: -8.47%
22,CN(C)c1cnn(-c2ccccc2)c(=O)c1Cl,inactive: 14.3%

row,Structure (SMILES),growth rescue (activation)
1,Cc1cc(C(=O)NCC(=O)Nc2ccc(F)c(F)c2)c(C)o1,inactive: 28.2%
2,Cc1ccc(/C=C2/SC(=S)N(CCCC(=O)Nc3ccc(O)cc3)C2=O)cc1,inactive: 18.2%
3,Cc1ccc(C(=O)Oc2ccc(N3C(=O)CCC3=O)c(C)c2)cc1,inactive: -0.161%
4,O=C(/C=C/c1ccco1)Nc1ccc(N2CCCC2)cc1,inactive: 3.07%
5,Cc1cc(C(=O)NP(=O)(N2CC(C)OC(C)C2)N2CC(C)OC(C)C2)c(C)n1C1CC1 (stereo unspecified),inactive: 7.4%
6,CC(=O)c1ccc(N(CC(=O)NC2CCCC2)C(=O)c2ccc(C)s2)cc1,inactive: 2.93%
7,Cc1c(NC(=O)C(C)OC(=O)c2sc3ccccc3c2Cl)c(=O)n(-c2ccccc2)n1C (stereo unspecified),inactive: 0.669%
8,CC(C)(C)N(Cc1ccccc1)C(=O)COC(=O)c1ccc(N2CCCC2=O)cc1,inactive: -20.2%
9,O=C1COCCOCCOCC(=O)NCCN1,inactive: -5.91%
10,CS(=O)(=O)Cc1ccc(C(=O)NC2CCCc3ccccc32)cc1 (stereo unspecified),inactive: 0.463%
11,Clc1cccc(-c2ccc(C=Nc3ccc(N4CCOCC4)cc3)o2)c1Cl,inactive: 10.6%
12,CN(C)c1ccc(/C=N/NC(=O)c2ccccc2Cl)cc1,inactive: -3.75%
13,CC(Nc1ccc2c(c1)OCCO2)C(=O)N1CCc2ccccc21 (stereo unspecified),inactive: 18.7%
14,O=C1/C(=C/c2cccs2)SC(=S)N1c1cccc(O)c1,inactive: 14.5%
15,O=C(O)c1ccc(/C=N/Nc2ccc(Cl)nn2)cc1,inactive: 7.12%
16,CC(C)C(C)NC(=O)COc1ncnc2sccc12 (stereo unspecified),inactive: 8.69%
17,CC1CCCC(NC(=O)CCn2c(=S)oc3ccccc32)C1C (stereo unspecified),inactive: 4.06%
18,CC(=O)c1ccc(S(=O)(=O)N2CCC(c3nc4ccccc4[nH]3)CC2)cc1,inactive: 14.3%
19,CCCCNC(=O)N1CCN(C(=O)c2ccco2)CC1,inactive: 2.34%
20,COc1cc(N2CCCC2)c(OC)cc1C=O,inactive: 19.7%
21,COc1ccc(CNS(=O)(=O)NCc2ccccc2)cc1OC,inactive: -0.802%
22,COc1ccccc1C(=O)OCc1cc(=O)n2ccsc2n1,inactive: 20%

row,Structure (SMILES),growth rescue (activation)
1,COc1cccc(CNC(=O)C(Cc2ccccc2)n2cccc2)c1 (stereo unspecified),inactive: 4.12%
2,Cc1ccc(SCC(=O)NNC(=O)c2cncc(Br)c2)cc1,inactive: 7.28%
3,CC(=O)Nc1ccc(S(=O)(=O)N(C)CC(=O)NC2CCCCCCC2)cc1,inactive: -7.74%
4,OC[C@@H]1CN(Cc2ccco2)C[C@H](n2cnc3c(NC4CCC4)ncnc32)O1,inactive: 1.57%
5,O=C(Nc1ccccc1)c1cc(C2CCCN(C(=O)c3ccc4c(c3)CCO4)C2)on1 (stereo unspecified),inactive: 11.4%
6,NS(=O)(=O)c1ccc(N/N=C/c2ccncc2)cc1,inactive: 17.7%
7,O=c1[nH]c2cc3c(cc2cc1CN(Cc1ccco1)C(=S)NCC1CCCO1)OCCO3 (stereo unspecified),inactive: 10.8%
8,CN(C)Cc1csc(NC(=O)Nc2cccc(Cl)c2)n1,inactive: -10.7%
9,CN(C)c1ccc(/C=N/n2c(C3CCCCC3)n[nH]c2=S)cc1,inactive: -12.4%
10,CCOC(=O)c1oc2c(c1C)-c1nn(Cc3ccccc3Cl)cc1CC2,inactive: -0.758%
11,Cc1ncc(CO)c2cc(-c3nnc(Nc4ccc5c(c4)OCO5)s3)c(=O)oc12,inactive: 25.2%
12,CN(C)CCNC(=O)/C(=C/c1ccc(-c2cccc(Cl)c2)o1)NC(=O)c1ccccc1,inactive: -6.59%
13,CC/C(=N\NC(=O)Nc1nonc1N)c1ccc(OC)c(OC)c1,inactive: 7.86%
14,CCCCc1ccc(S(=O)(=O)NNC(=S)NCc2ccco2)cc1,inactive: 14.5%
15,Nc1ccc(-c2nnn(Cc3ccccc3)n2)cc1,inactive: 9.36%
16,O=C(NCc1ccccc1)C(c1ccco1)N(C(=O)c1csnn1)C1CC1 (stereo unspecified),inactive: 12.2%
17,CN(CC(=O)NCc1ccccn1)S(=O)(=O)c1ccc(Br)cc1,inactive: 8.94%
18,Cc1ccc(NC(=O)Cn2c(=O)n(CCC(=O)NCc3ccc4c(c3)OCO4)c(=O)c3sccc32)c(C)c1,inactive: 8.75%
19,CCOc1ccc(S(=O)(=O)N(C)c2ccc(OCC(=O)NCc3ccc(C(=O)OC)cc3)cc2)cc1,inactive: 17.1%
20,Cc1nnc(SCc2cccc([N+](=O)[O-])c2)o1,inactive: 5.43%
21,NC(=O)c1ccc(NC(=O)Cc2csc(-c3ccccc3)n2)cc1,inactive: 8.25%
22,Cc1cccc(C(=O)OC2CCOC2=O)c1C (stereo unspecified),inactive: -14%

row,Structure (SMILES),growth rescue (activation)
1,CCC1=[N+](C)c2cccc3cccc(c23)N1C,inactive: 3.57%
2,CN(CC(=O)Nc1ccc2c(c1)OCO2)S(=O)(=O)c1ccc2c(c1)CCC(=O)N2,inactive: 13.5%
3,CCc1cccc(NC(=O)CCNC(=O)Cn2ccc3ccccc3c2=O)c1,inactive: 7.31%
4,CCn1c(SCC(=O)Nc2ccccc2F)nnc1-c1ccoc1C,inactive: 11.6%
5,Cc1c(NC(=O)COC(=O)c2cc(-c3ccc(-c4ccccc4)cc3)nc3ccccc23)c(=O)n(-c2ccccc2)n1C,inactive: 31.3%
6,COc1ccc(C(=O)NNC(=O)CSc2nc(C(C)C)nc3ccccc23)cc1,inactive: -0.026%
7,CC1CCCCN1C(=O)COC(=O)Cc1c[nH]c2ccccc12 (stereo unspecified),inactive: -4.66%
8,CCCCOC(=O)c1ccc(NC(=O)C(=O)NCc2cccnc2)cc1,inactive: 0.117%
9,CCOC(=O)C1=C(C)C2C3C(=O)N(c4ccc(C)cc4C)C(=O)C3C1(C)C1C(=O)N(c3ccc(C)cc3C)C(=O)C21 (stereo unspecified),inactive: 3.68%
10,CCCOc1ccc(/C=N/NC(=S)Nc2ccccc2[N+](=O)[O-])c(O)c1,inactive: 26.6%
11,CC(=O)Nc1ccc(NC(=O)C(C)Sc2nnc(-c3ccc4c(c3)OCO4)o2)cc1 (stereo unspecified),inactive: 8.31%
12,O=C(NC(=S)Nc1cccnc1)c1cccc(Br)c1,inactive: 20.7%
13,COc1ccccc1N(Cc1cc(=O)[nH]c2ccccc12)C(=O)c1ccc([N+](=O)[O-])cc1,inactive: 4.74%
14,O=C(CSc1ccccc1)Nc1ccc(C(=O)Nc2ccc(O)cc2)cc1,inactive: 0.211%
15,Cc1c(Cl)c([N+](=O)[O-])nn1CCCC(=O)Nc1cccc(O)c1,inactive: 6.23%
16,CCN(CC)CCNC(=O)Cn1cnc2sc(C)c(S(=O)(=O)N3CC(C)CC(C)C3)c2c1=O (stereo unspecified),inactive: 12.2%
17,Nc1nc2ncc(C(=O)c3cc(Cl)cc(Cl)c3O)cc2s1,inactive: 14.7%
18,COc1ccc(N2CC(C(=O)N/N=C/c3cc([N+](=O)[O-])ccc3O)CC2=O)cc1 (stereo unspecified),inactive: 9.67%
